Legend:
[1] = tested on: MV4-11 cells; assay: Cell cycle distribution / subG1 fraction, PI staining, flow cytometry; format: cell-based, human; conditions: 2 nM, 5 nM or 10 nM, 48 h
Experimental: FIG. 3: The human FLT3-ITD positive cell line MV4-11 was stimulated with different FLT3i (2 nM, 5 nM or 10 nM) for 48 h (n=2). Cells were stained with PI and measured by flow cytometry. Data were analyzed with FACS Diva software (Version 7.0, BD Biosciences GmbH, Heidelberg, Germany).
(§1) After incubation, cells were harvested on ice and fixed in 80% ethanol at −20° C. for at least 1 h. Next, the cells were incubated with RNase for 30 min at room temperature, thereafter stained with propidium iodide (PI), and measured immediately with a flow cytometer. PI intercalates into DNA. In the different phases of the cell cycle, cells incorporate various amounts of PI. This allows the quantification of the cell cycle phases. The subG1 population represents the fraction of apoptotic/necrotic cells, which contains only fragmented DNA (DNA content <2N).
The synthesized set of FLT3 inhibitors (FLT3i) was tested in the human FLT3-ITD expressing AML cell line MV4-11 (Buchwald, Pietschmann et al. 2010).

[2] = tested on: FLT3-ITD in MV4-11 cells; assay: FLT3-ITD signaling, Western blot of cell lysates; conditions: MV4-11, 5 nM
[3] = Tolerability in xenotransplanted mice; format: in vivo; conditions: oral or intraperitoneal, 4 or 24 hours after start of treatment
Experimental: (§2) To test the tolerability and in vivo efficacy of Marbotinib, xenotransplantation assays using NOD/SCID/yc (NSG) mice were performed. In a first experiment, 10×10^6 MV4-11 cells were transplanted subcutaneously into recipient mice (day 0). […] As a control, a cohort of transplanted mice were treated with the FLT3-inhibitor PKC412 (100 mg/kg). To investigate target efficacy, mice were sacrificed 24 hours after beginning of treatment. Upon preparation of single cell suspension derived from subcutaneous tumor nodes (90-100 cm^3), protein lysates were extracted immunoblot analyses performed.
Altogether, 18 mice were treated with different concentrations of Marbotinib either by oral administration (N=14) or intraperitoneal injections (N=4). Mice were sacrificed either 4 hours (N=9) or 24 hours (N=9) after start of treatment.

[4] = tested on: Ba/F3 ITD N676K; assay: Cell cycle / subG1 fraction in Ba/F3 mutants, flow cytometry; format: cell-based, murine; conditions: 5 nM, 48 h
Experimental: (§3) Cells were stained with PI; cell cycle was analyzed by flow cytometry.
as §1
(§4) As described in the introduction there are several mutations next to ITDs that lead to reduce efficiency or to resistance against FLT3i treatment. The murine pro B cell line Ba/F3 and different mutant forms were analyzed. The proliferation of Ba/F3 wild type (WT) cells is dependent of interleukin-3 (IL-3). These cells were cultivated with 10% WEHI.
(§5) The WT and the different mutants were stained with PI and cell cycle distribution was analyzed by flow cytometry.

[5] = tested on: Ba/F3 ITD D835Y; assay: as above; format: cell-based, murine; conditions: 5 nM, 48 h
Experimental: as §3, §1, §4, §5

[6] = tested on: Ba/F3 D835Y N676K; assay: as above; format: cell-based, murine; conditions: 5 nM, 48 h
Experimental: as §3, §1, §4, §5

[7] = tested on: Ba/F3 D835Y; assay: as above; format: cell-based, murine; conditions: 5 nM, 48 h
Experimental: as §3, §1, §4, §5

[8] = tested on: MV4-11 cells; assay: Proliferation assay against human AML cells; format: cell-based
Experimental: FIGS. 2A and 2B: Proliferation assay of selected compounds of the novel set of TKi against human AML cells (MV4-11 cells).
The pharmacological properties of the novel compounds against FLT3-ITD-positive human MV4-11 cells (FIG. 2A+B) were evaluated. Most of the investigated compounds show promising effects in this assay.

[9] = tested on: FLT3-phosphorylation and STAT5-phosphorylation in MV4-11 tumors; assay: Subcutaneous MV4-11 xenotransplantation, immunoblot of tumor lysates (target efficacy); format: in vivo, NOD/SCID/yc (NSG) mice; conditions: 0.1, 10, 100 mg/kg, oral or intraperitoneal, 24 hours after beginning of treatment
Experimental: FIG. 11. Immunoblot analyses of protein lysates derived from MV4;11 xenotransplanation models. Tumor nodes were explanted 24 hours upon start of treatment with indicated concentrations of PKC412 or Marbotinib and protein lysates were prepared. Immunoblot analysis was performed using anti-pSTAT5A/B (Tyr694/699), anti-(total)-t-STAT5 and anti-phospho-FLT3 (Tyr591) antibodies. Anti-GAPDH staining was used as loading control. For each condition 2 tumor samples were blotted.
as §2

[10] = tested on: FLT3-ITD and its KD mutants vs KIT; conditions: Smith, Lasater et al. 2014; cited from earlier work
[11] = tested on: Ba/F3 WT vs. mutant cells; assay: FLT3 signaling in Ba/F3 WT and mutant cells, Western blot; conditions: Ba/F3 WT and mutants, 5 nM, 2 h
[12] = tested on: MV4-11 cells; conditions: xenograft mouse model; Zimmerman, Turner et al. 2013; cited from earlier work

With `CC(C)(C)c1cc(NC(=O)Nc2ccc3oc(C(=O)c4cc5cc(O)ccc5[nH]4)cc3c2)no1` [Marbotinib, 1-(5-(tert-butyl)isoxazol-3-yl)-3-(2-(5-hydroxy-1H-indole-2-carbonyl)benzofuran-5-yl)urea] the subG1 fraction [1] was “increase the subG1 fraction most strongly”, the p-STAT5 [2] was “clear reduction” and the p-FLT3-ITD ([2]; 1 h) was “clearly reduces”. For the same compound, the “toxic effects in analyzed organs (liver, lung, heart, kidneys)” value [3] was “no toxic effects were observed”, the subG1 fraction [4] was “strong increase” and the subG1 fraction [5] was “slight increase”. For the same compound, the “subG1 fraction / cell cycle distribution” value [6] was “strong increase”, the “subG1 fraction / cell cycle distribution” value [7] was “strong increase” and the “effect in proliferation assay” value ([8]; FLT3-ITD-positive MV4-11 cells) was “most potent”. The inhibition at 0.001 µM ([8]; Homo sapiens, MV4-11, given once at 1 nM) was roughly 80%, the “FLT3-phosphorylation in tumor nodes” value [9] was “inhibition” and the “STAT5-phosphorylation in tumor nodes” value [9] was “inhibition”.
In the case of `CC(C)(C)c1nnc(NC(=O)Nc2ccc3[nH]c(C(=O)c4cc5cc(O)ccc5[nH]4)cc3c2)s1` [46b, 1-(5-tert-Butyl-1,3,4-thiadiazol-2-yl)-3-(2-(5-hydroxy-1H-indole-2-carbonyl)-1H-indol-5-yl)urea], the melting point was 235 °C.
Work on `Cc1cc(NC(=O)Nc2ccc3[nH]c(C(=O)c4cc5cc(O)ccc5[nH]4)cc3c2)no1` [46d, 1-(2-(5-Hydroxy-1H-indol-2-carbonyl)-1H-indol-5-yl)-3-(5-methylisoxazol-3-yl) urea] yielded a melting point of 280.6 to 281.5 °C.
`CC(C)(C)c1cc(NC(=O)Nc2ccc3[nH]c(C(=O)c4cc5cc(O)ccc5[nH]4)cc3c2)ns1` [46c, 1-(5-tert-Butylisothiazol-3-yl)-3-(2-(5-hydroxy-1H-indol-2-carbonyl)-1H-indol-5-yl) urea] showed a melting point of 295.6 °C.
In the case of `CC1(COc2ccc3c(c2)ncn3-c2ccc3cccc(N4CCC(N)CC4)c3n2)COC1` [Crenolanib, reference compound], the “potency on FLT3-ITD and its KD mutants relative to KIT” value [10] is listed as “about 100 fold”, the “effect on phosphorylation status of STAT5 and FLT3” value [11] is listed as “did not result in strong effects” and the “potency against MV4-11 cells (comparison)” value [1] is listed as “less potent than AC220”. The “subG1 fraction / cell cycle distribution” value [6] was “changes in cell cycle distribution”, the “subG1 fraction / cell cycle distribution” value [7] was “changes in cell cycle distribution” and the “outgrowth of MV4-11 cells” value [12] was “delayed the outgrowth”.

— patent US11384076B2, “Synthesis, pharmacology and use of new and selective FMS-like tyrosine kinase 3 (FLT3) FLT3 inhibitors” (UNIVERSITÄT REGENSBURG, priority 2017, dated 2022)
